We go through 20 molecules from article PMC9911399, “Two distinct binding modes provide the RNA-binding protein RbFox with extraordinary sequence specificity”.

B1: CAUUCGU (DNA:RNA)
RNA: GGGAGACCGGAAUUCAGAUUGUCCCAUUCGUUUAAAUCCCGUCGUAGCCACCA
DNA 1: CAATCTGAATTCCGGTCTCCC
DNA 2: TGGTGGCTACGACGGGATT
B2: GUCGGGG (DNA:RNA)
RNA: B1 RNA with C25G, A26U, U27C, U28G, C29G, U31G
DNA 1: CAATCTGAATTCCGGTCTCCC
DNA 2: TGGTGGCTACGACGGGATT
B3: UGCAGCG (DNA:RNA)
RNA: GGGAGACCGGAAUUCAGAUUGUCCUGCAGCGUUAAAUCCCGUCGUAGCCACCA
DNA 1: CAATCTGAATTCCGGTCTCCC
DNA 2: TGGTGGCTACGACGGGATT
B4: CAUCGGG (DNA:RNA)
RNA: B1 RNA with U28C, C29G, U31G
DNA 1: CAATCTGAATTCCGGTCTCCC
DNA 2: TGGTGGCTACGACGGGATT
B5: GGGUUCC (DNA:RNA)
RNA: B3 RNA with U25G, C27G, A28U, G29U, G31C
DNA 1: CAATCTGAATTCCGGTCTCCC
DNA 2: TGGTGGCTACGACGGGATT
B6: GAUCCGA (DNA:RNA)
RNA: B1 RNA with C25G, U28C, U31A
DNA 1: CAATCTGAATTCCGGTCTCCC
DNA 2: TGGTGGCTACGACGGGATT
B7: UUUUAAC (DNA:RNA)
RNA: B1 RNA with C25U, A26U, C29A, G30A, U31C
DNA 1: CAATCTGAATTCCGGTCTCCC
DNA 2: TGGTGGCTACGACGGGATT
B8: AAUUGGA (DNA:RNA)
RNA: B1 RNA with C25A, C29G, U31A
DNA 1: CAATCTGAATTCCGGTCTCCC
DNA 2: TGGTGGCTACGACGGGATT
B9: UUUACCU (DNA:RNA)
RNA: B1 RNA with C25U, A26U, U28A, G30C
DNA 1: CAATCTGAATTCCGGTCTCCC
DNA 2: TGGTGGCTACGACGGGATT
B10: GCGUCCC (DNA:RNA)
RNA: B1 RNA with C25G, A26C, U27G, G30C, U31C
DNA 1: CAATCTGAATTCCGGTCTCCC
DNA 2: TGGTGGCTACGACGGGATT
B11: GCUUACC (DNA:RNA)
RNA: B1 RNA with C25G, A26C, C29A, G30C, U31C
DNA 1: CAATCTGAATTCCGGTCTCCC
DNA 2: TGGTGGCTACGACGGGATT
B12: UAACUGA (DNA:RNA)
RNA: B1 RNA with C25U, U27A, U28C, C29U, U31A
DNA 1: CAATCTGAATTCCGGTCTCCC
DNA 2: TGGTGGCTACGACGGGATT
B13: UCAUUGC (DNA:RNA)
RNA: B1 RNA with C25U, A26C, U27A, C29U, U31C
DNA 1: CAATCTGAATTCCGGTCTCCC
DNA 2: TGGTGGCTACGACGGGATT
B14: AUGUCGG (DNA:RNA)
RNA: B1 RNA with C25A, A26U, U27G, U31G
DNA 1: CAATCTGAATTCCGGTCTCCC
DNA 2: TGGTGGCTACGACGGGATT
B15: AUUUUAU (DNA:RNA)
RNA: B1 RNA with C25A, A26U, C29U, G30A
DNA 1: CAATCTGAATTCCGGTCTCCC
DNA 2: TGGTGGCTACGACGGGATT
B16: UUGCAAC (DNA:RNA)
RNA: B3 RNA with G26U, C27G, A28C, G29A, C30A, G31C
DNA 1: CAATCTGAATTCCGGTCTCCC
DNA 2: TGGTGGCTACGACGGGATT
B17: UCAGCAC (DNA:RNA)
RNA: B1 RNA with C25U, A26C, U27A, U28G, G30A, U31C
DNA 1: CAATCTGAATTCCGGTCTCCC
DNA 2: TGGTGGCTACGACGGGATT
B18: AAACACU (DNA:RNA)
RNA: B1 RNA with C25A, U27A, U28C, C29A, G30C
DNA 1: CAATCTGAATTCCGGTCTCCC
DNA 2: TGGTGGCTACGACGGGATT
B19: UGUAGGC (DNA:RNA)
RNA: B3 RNA with C27U, C30G, G31C
DNA 1: CAATCTGAATTCCGGTCTCCC
DNA 2: TGGTGGCTACGACGGGATT
B20: CCCGAUG (DNA:RNA)
RNA: B3 RNA with U25C, G26C, A28G, G29A, C30U
DNA 1: CAATCTGAATTCCGGTCTCCC
DNA 2: TGGTGGCTACGACGGGATT

Where a chain is given by its changes, count along the chain named. The list shows a part of the results.

For the assay, the target named is T1, RBFOX1 RRM RbFoxmut (Fox-RRM*) (Homo sapiens, UniProt Q9NWB1 109-208, R118D;E147R;N151S;E152T).
T1 sequence: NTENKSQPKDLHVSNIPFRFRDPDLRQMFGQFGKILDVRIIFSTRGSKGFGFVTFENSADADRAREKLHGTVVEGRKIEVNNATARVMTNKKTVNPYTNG
Nature of the assay: EMSA; HiTS-Eq, 1 nM pool, 10 min; buffer printed only for the single-RNA assays: 10 mM Tris pH 7.5, 150 mM NaCl, 3.4 mM EDTA, 0.001% NP-40, 30 C. The following applies: tags: His6 N-terminal (pET28a); label: 5' 32P. The method, boiled down: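 Purified RbFox RRM (wild type or mutant) was equilibrated for 10 min in 50 µL with 1 nM of a 5′-radiolabelled pool of RNA with 7 randomized nucleotides, its flanks annealed to DNA oligonucleotides, across increasing protein concentrations. Free RNA was separated by 8% native PAGE, excised, reverse-transcribed, PCR-barcoded and sequenced on an Illumina HiSeq 2500. Relative association constants came from read-count changes of each variant against the control reaction, normalised to the cognate motif.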
With B1, the binding signal was 0.131 KA relative to UGCAUGU.

On to B2, for which the binding signal is 0.101 KA relative to UGCAUGU.

Turning to B3, the binding signal was 0.154 KA relative to UGCAUGU.

As to B4, the binding signal was 0.0665 KA relative to UGCAUGU.

With B5, the binding signal is 0.166 KA relative to UGCAUGU.

On to B6, for which the binding signal was 0.085 KA relative to UGCAUGU.

For the molecule B7, the binding signal was 0.0716 KA relative to UGCAUGU.

For the molecule B8, the binding signal is 0.0424 KA relative to UGCAUGU.

With B9, the binding signal is 0.0995 KA relative to UGCAUGU.

Turning to B10, the binding signal is 0.075 KA relative to UGCAUGU.

For B11, the binding signal is 0.0696 KA relative to UGCAUGU.

As to B12, the binding signal is 0.0661 KA relative to UGCAUGU.

Take B13: the binding signal is 0.12 KA relative to UGCAUGU.

As to B14, the binding signal is 0.1 KA relative to UGCAUGU.

Regarding B15, the binding signal is 0.135 KA relative to UGCAUGU.

For B16, the binding signal was 0.057 KA relative to UGCAUGU.

On to B17, for which the binding signal was 0.083 KA relative to UGCAUGU.

In the case of B18, the binding signal is 0.0723 KA relative to UGCAUGU.

With B19, the binding signal is 0.115 KA relative to UGCAUGU.

For B20, the binding signal is 0.0971 KA relative to UGCAUGU.
